# Test results published in the supplement of paper PMC3334620.
# Over roughly 33,000 sequences, “E-score (-0.5 to 0.5)” has its median near -0.01; the highest 2% begin near 0.26. Some of the results follow.
# Molecular target: Ste12 (UniProt P13574)
# Experiment: PBM E-score (8-mer binding enrichment) (E-score (-0.5 to 0.5)); higher = stronger / more preferred TF binding; most listed sequences are background and not binding sites
# Details: protein concentration: 200 nM; construct: GST-DNA-binding domain
# How it was run: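 Universal all-10-mer Agilent arrays, fresh or stripped once, were converted to double-stranded form by primer extension. GST-tagged yeast transcription factors from PURExpress in vitro transcription/translation, full-length or DNA-binding domain only, were applied at about 100-200 nM and detected with fluorescent anti-GST. After masliner normalisation, the Universal PBM Analysis Suite scored each ungapped eight-base word together with its reverse complement by E-score.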
row,Sequence,PBM E-score
1,CAAGACTG,-0.101
2,AGGGGTGG,0.258
3,GATCAAGC,-0.0184
4,CTGGTGAC,-0.184
5,GGAAAGCA,-0.0204
6,CAGATTGA,-0.0393
7,CAATAGTG,0.122
8,GGTGGAGA,-0.129
9,AGTAAGGG,-0.0174
10,ATCTAGTG,-0.0515
11,CGACTTAA,-0.107
12,CGAACTGC,-0.134
13,CTCCTGCC,-0.154
14,GGCAATAA,0.0297
15,AGAAACTG,0.102
16,TGTCGAAA,0.0506
17,AAAGAGAG,0.102
18,CCCGGAAA,0.218
19,ACTAGCGC,-0.0232
20,CAGGATCG,0.0943
21,ACACCGAG,0.0488
22,CCTGGAAG,-0.195
23,ACTGGCGA,-0.158
24,ACGACATC,-0.115
25,CACTACCC,-0.16

row,Sequence,PBM E-score
1,AATGGAAG,-0.0266
2,CTGCCGAA,-0.0895
3,ACTAATCA,0.0131
4,CAATTTCG,0.104
5,GTTGGATA,-0.158
6,ATAGGGTG,-0.145
7,AACTGATC,0.0373
8,CCGCAACG,0.0364
9,ATTATCAA,0.133
10,TCATATCA,0.0104
11,CCATCCAC,-0.044
12,TCAAGAGA,-0.0491
13,ATCGCTCC,-0.162
14,CTCCGACA,0.0703
15,ACTCTTGG,-0.0414
16,CCCATCGG,-0.0908
17,AGGCTCTA,-0.265
18,GCGCGTAC,-0.0343
19,CAGCCCGG,0.00732
20,AGTCATCC,-0.142
21,CATAAGGA,-0.0623
22,GACTATGC,-0.0435
23,CCTATCCA,-0.165
24,CCGGAGCC,0.104
25,GCCTGGCC,-0.168

row,Sequence,PBM E-score
1,ATACGATA,0.0198
2,ACCTTGAA,0.107
3,AAGCCTTG,-0.00117
4,ACGTAAGT,-0.295
5,AGGGATGC,-0.175
6,AAATTACG,0.223
7,ACGAACTG,-0.18
8,ATTTGTCG,0.189
9,ACTATGAC,-0.0384
10,AACGTATG,-0.0675
11,ACCACCCG,-0.106
12,CGGGAGAA,0.0131
13,TACGGGAA,0.101
14,AGGAGTTA,-0.124
15,CAAGAGGG,-0.125
16,ATGGATGA,0.173
17,GACCACCC,-0.189
18,TACACGAA,0.00858
19,ATCCGTTG,-0.0284
20,ACCTAGTC,-0.166
21,AGGGCTAT,-0.264
22,TCACATCA,0.257
23,CCTCATGA,0.0311
24,CTCCACAG,-0.187
25,AATGTCTG,0.00495

row,Sequence,PBM E-score
1,AATCGAGG,0.108
2,CGCGATGA,0.0956
3,TCCCGTCA,-0.0215
4,ATTAATCA,0.145
5,TCATGACA,0.178
6,CCTGAAGA,0.14
7,GAACGACC,-0.178
8,AAAACCGA,0.115
9,AGCAGGGA,-0.165
10,ACAACCAG,-0.153
11,ATGTACCC,-0.0816
12,TAAAACGA,0.134
13,AATAGAGT,-0.0744
14,CAAGTGAG,-0.0337
15,CAATGTAA,0.187
16,CACACACA,0.118
17,AGGCACAT,0.012
18,CGCATGAA,0.0861
19,AGAAGAAC,-0.0218
20,AATGTATC,0.168
21,CTACACGA,0.0466
22,AAACATCC,0.249
23,ATGGCAAA,0.14
24,AACATGAG,0.0235
25,CTAACTAG,0.0938

row,Sequence,PBM E-score
1,CCCATCCC,-0.0335
2,GCGTCGAA,0.152
3,CCTGCGAA,0.0201
4,CAGCAGAA,0.0845
5,ATGGTCAC,0.0173
6,CGCGAGAG,0.0122
7,ACGGAAAA,0.177
8,AACCGGAC,0.011
9,CTCACAAC,0.119
10,TAATCGGA,0.0649
11,ATCCTCGA,0.0483
12,CGTTAAGA,0.0859
13,TGTGGTAA,0.0726
14,AGTCACAT,0.0663
15,AATGGATC,-0.159
16,GAGATAAA,0.13
17,ACCTCAGA,-0.0382
18,AGGCCGCC,-0.115
19,ACCGGCCA,-0.0408
20,GAGATCCC,-0.153
21,ATAGAGGA,-0.211
22,AGGCAGTG,0.0201
23,ACCTCTCG,-0.127
24,ATGTAGCG,0.0619
25,ACATTCCA,-0.0641

row,Sequence,PBM E-score
1,TGCTTCAA,-0.0117
2,ACCTGCCA,-0.121
3,GGCTGCAA,0.173
4,CCACAGAG,-0.0233
5,CCAAAACA,0.233
6,TCTATGAA,0.086
7,ATCCCAGA,-0.238
8,CGGTACAA,0.157
9,AAAATATC,0.147
10,AGAATAAC,0.125
11,ACCTGAAC,-0.122
12,GCTGATCC,0.0347
13,AGTCCATG,-0.182
14,CAACCACC,-0.0591
15,GGCTCCCA,-0.23
16,ATGGAGGG,-0.0497
17,ATTGCCGC,-0.0726
18,GCCGTCGA,-0.0573
19,TCACCCAA,0.171
20,CGTTCTAA,0.0856
21,AAGATGGG,0.0173
22,GTGGATAA,0.0126
23,GAGGTCGA,-0.0365
24,AAACAACG,0.0956
25,AGGCCTTG,-0.253

row,Sequence,PBM E-score
1,AGGCTGGC,-0.0154
2,CGGTAGAG,-0.232
3,CGGCCCGC,-0.0395
4,AGAAGCCT,-0.0396
5,AGATATAT,0.152
6,CCGCCACA,0.0134
7,CTTTTTCC,0.21
8,ACACTCTC,0.105
9,AGCGAAAC,0.168
10,CGCCAACC,-0.142
11,GGTAGAAA,0.0903
12,GCATCTCC,-0.0324
13,AACACGTC,-0.0569
14,AGGGTATC,-0.102
15,AACAACCT,0.193
16,AAGATTTA,0.151
17,CGCCTAAA,-0.0735
18,AGGTCAGC,-0.0629
19,CCCATGCG,-0.114
20,TATATCAA,0.14
21,GCAGCTAC,-0.105
22,CAAGTTAG,-0.0354
23,CTCTAAAA,0.0605
24,AATACTTG,0.0737
25,ATAGATCG,0.0199

row,Sequence,PBM E-score
1,CACGCAGC,-0.104
2,AGTACGTC,0.011
3,GATTTCGC,0.2
4,GAGTTTCA,0.407
5,CCACGCGC,-0.152
6,GCGTGTAC,-0.217
7,CCGTTGTA,0.0802
8,AATATCGC,-0.00602
9,CGCGATTA,0.177
10,CCCAAACA,0.238
11,AGTGACCC,-0.109
12,ATTGATCA,-0.0362
13,CCAGCTGC,-0.272
14,GATTTGAC,0.107
15,AATCTATG,0.155
16,AGCGTGGC,-0.0385
17,CTGTCGGC,-0.0733
18,CATAGTTA,0.0529
19,ACTTCGCT,-0.0699
20,ATAAGCTC,-0.0717
21,ACACGCTG,-0.0247
22,CGAAACCC,0.19
23,CGGAGGTC,-0.036
24,TACAACGA,0.0972
25,CAATTTGA,0.141

row,Sequence,PBM E-score
1,ATAGCCCA,-0.0642
2,CCCCGCGA,0.0194
3,CCCTGACA,-0.0188
4,GAGGACAA,-0.0381
5,CAAACTAA,0.265
6,AAGGATTC,-0.161
7,GGGACCAA,0.00807
8,GCTCAGCC,-0.189
9,ACTTGCCC,-0.24
10,CCTTACAA,0.0512
11,AGTAGTAG,-0.0938
12,AATATACT,0.13
13,GAGGGGCC,0.0322
14,CTCCGCCA,-0.0967
15,CGATCCCG,-0.0144
16,TATGGTGA,-0.0224
17,GGGGTTAC,-0.15
18,CTTGGACC,-0.183
19,CGGGAATA,0.109
